Values joined by “and” are separate entries in the source; they are usually repeats but may differ in a detail not shown here. Equal entries are not always repeated. Hit rate of the full screen: of about 350,000 compounds, about 700 (0.2%) were called active. Calls come from the whole dose curve; as a rule, active = well fitted inhibition curve with a large enough effect; inconclusive = small, poorly fitted or top-dose-only effect; inactive = flat fitted curve, though single readings scatter. This is a selection; strong and weak results do not stand in their true shares. Some compounds were tested as several samples or in several runs, with calls that do not always agree.
Potency is the fitted concentration of half-maximal effect.

For the test, the target named is RecQ-like DNA helicase BLM (Homo sapiens) (UniProt P54132). In words: qHTS Assay for Inhibitors of Bloom's syndrome helicase (BLM).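 For activity change, negative = inhibition: plate controls were vehicle for no effect and no enzyme for full effect.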 Note: nearly all actives have a fitted effect of over 35% in size. The note with it: recombinant BLM DNA unwinding, fluorescence dequenching; series mostly up to 56.1 µM; activity change, negative = inhibition: at the top concentration. A general note: In qHTS, concentration-response curves come from the screen itself.
Chain of UniProt P54132 (P54132 whole entry, looked up): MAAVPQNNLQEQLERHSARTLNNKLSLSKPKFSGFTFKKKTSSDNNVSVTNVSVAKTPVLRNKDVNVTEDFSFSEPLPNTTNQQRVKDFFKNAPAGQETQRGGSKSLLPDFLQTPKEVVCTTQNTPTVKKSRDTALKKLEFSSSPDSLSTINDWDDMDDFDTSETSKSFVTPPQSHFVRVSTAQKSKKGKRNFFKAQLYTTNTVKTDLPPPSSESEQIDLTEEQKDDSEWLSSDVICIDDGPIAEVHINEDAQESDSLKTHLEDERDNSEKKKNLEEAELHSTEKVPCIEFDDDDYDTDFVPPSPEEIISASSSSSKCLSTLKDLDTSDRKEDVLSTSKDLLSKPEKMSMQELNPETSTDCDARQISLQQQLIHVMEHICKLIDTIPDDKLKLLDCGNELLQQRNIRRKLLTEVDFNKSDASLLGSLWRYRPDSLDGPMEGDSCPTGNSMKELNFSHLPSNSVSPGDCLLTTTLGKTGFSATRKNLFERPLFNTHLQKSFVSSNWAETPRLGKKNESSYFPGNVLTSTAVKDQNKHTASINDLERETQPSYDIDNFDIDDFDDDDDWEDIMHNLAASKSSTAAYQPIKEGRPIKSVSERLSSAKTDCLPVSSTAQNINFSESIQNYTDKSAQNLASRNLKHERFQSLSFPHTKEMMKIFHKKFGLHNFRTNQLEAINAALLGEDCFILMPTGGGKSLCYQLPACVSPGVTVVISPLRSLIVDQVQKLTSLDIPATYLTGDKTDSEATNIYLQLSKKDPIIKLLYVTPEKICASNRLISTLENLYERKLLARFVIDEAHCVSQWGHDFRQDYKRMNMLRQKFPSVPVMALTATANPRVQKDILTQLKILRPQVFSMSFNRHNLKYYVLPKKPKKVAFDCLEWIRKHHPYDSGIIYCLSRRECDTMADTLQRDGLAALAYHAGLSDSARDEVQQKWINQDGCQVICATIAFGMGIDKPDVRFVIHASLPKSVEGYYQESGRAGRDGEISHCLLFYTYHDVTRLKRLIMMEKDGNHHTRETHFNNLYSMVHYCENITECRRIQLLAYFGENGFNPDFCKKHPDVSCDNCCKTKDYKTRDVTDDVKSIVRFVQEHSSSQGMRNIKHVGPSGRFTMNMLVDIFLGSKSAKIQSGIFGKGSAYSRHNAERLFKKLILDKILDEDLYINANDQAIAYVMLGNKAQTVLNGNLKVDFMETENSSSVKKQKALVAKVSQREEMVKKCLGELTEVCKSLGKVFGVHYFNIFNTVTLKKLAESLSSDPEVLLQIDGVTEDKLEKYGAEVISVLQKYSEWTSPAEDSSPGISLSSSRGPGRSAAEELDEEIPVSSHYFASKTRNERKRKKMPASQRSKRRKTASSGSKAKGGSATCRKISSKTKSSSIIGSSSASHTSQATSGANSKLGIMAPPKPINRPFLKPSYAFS
For the molecule `COCCN=c1scc(-c2ccco2)n1/N=C/c1ccc(O)c(O)c1O`, the Potency was active: 10 µM.
In the case of `CCOC(=O)c1c(C)[nH]c2c1-c1ccccc1C(=O)C2=O`, the Potency was active: 2.82 µM.
Still for that read-out and setting: the same measure for `CC(C)NCC(O)c1ccc(O)c(O)c1` (stereo not given): “inactive”; for `CC1CCC2C(=O)N3C(CCC(C)C3c3ccc(-c4ccco4)cc3)C(=O)N2C1c1ccc(-c2ccco2)cc1` (stereo not given): active: 3.55 µM.
On to `CCCCCN(CCCCC)C(=O)C(CCC(=O)O)NC(=O)c1ccc(Cl)c(Cl)c1` (stereo not given), for which the “activity change, negative = inhibition” value was inactive: 1.68%.
Take `COC(=O)c1c(C)[nH]c(C)c1C(=O)c1ccccc1Cc1ccccc1`: the “activity change, negative = inhibition” value is inactive: -10.2%.
As to `Cc1ccc(S(=O)(=O)/N=C2\C=C(Nc3cccc(C(=O)O)c3)C(=O)c3ccccc32)cc1`, the Potency is active: 20 µM.
`CCCC1O[C@@H]2C[C@H]3[C@@H]4CCC5=CC(=O)C=C[C@]5(C)[C@H]4[C@@H](O)C[C@]3(C)[C@]2(C(=O)CO)O1` (stereo not given in full): the “activity change, negative = inhibition” value is inactive: -11.8%.
As for `CC[C@H](NC(=O)c1c(C)c(-c2ccccc2)nc2ccccc12)c1ccccc1`, the Potency result was “inactive”.
For `COc1cc2nc(N3CCN(C(=O)[C@@H]4COc5ccccc5O4)CC3)nc(N)c2cc1OC`, the “activity change, negative = inhibition” value is inactive: -4.55%.
As to `CC1(C)C=C2C(=NN(c3ccccc3)C(N)=C2C#N)CO1`, the Potency was active: 17.8 µM.
On to `NC(=NCCCCCCN=C(N)/N=C(\N)Nc1ccc(Cl)cc1)/N=C(\N)Nc1ccc(Cl)cc1`, for which the Potency entry is “inactive”.
On to `CN=C(NC#N)Nc1ccc(C2=NNC(=O)CC2C)cc1` (stereo not given), for which the “activity change, negative = inhibition” value is inactive: -1.37%.
With `CN1CCc2c(sc(NC(=O)c3cc4cc([N+](=O)[O-])ccc4s3)c2C(N)=O)C1`, the Potency is active: 28.2 µM.
Take `O=C1CN(/N=C/c2ccc(-c3ccc([N+](=O)[O-])cc3)o2)C(=O)N1`: the “activity change, negative = inhibition” value is inactive: 2.41%.
For the molecule `C[C@@H](CN1c2ccccc2Sc2ccccc21)N(C)C`, the “activity change, negative = inhibition” value was inactive: 6.58% [at 21.4 µM].
On to `COc1ccc2c(c1)Cc1sc(NC(=O)c3cccnc3)nc1-2`, for which the Potency is active: 17.8 µM.
Regarding `c1coc(-c2nc(-c3ccco3)c(-c3ccco3)nc2-c2ccco2)c1`, the Potency was active: 14.1 µM.
Still for that read-out and setting: the same measure for `C[C@]12C[C@H](O)[C@H]3[C@@H](CCC4=CC(=O)CC[C@@]43C)[C@@H]1CC[C@@H]2C(=O)CO`: “inactive”.
`C[C@@]12CC[C@@H]3c4ccc(O)cc4CC[C@H]3[C@H]1CC[C@H]2O`: the “activity change, negative = inhibition” value was inactive: -6.55% [at 21.4 µM].
Turning to `O=C(C1CCCCC1)N1CC(=O)N2CCc3ccccc3[C@@H]2C1`, the “activity change, negative = inhibition” value is inactive: -0.529%.
Regarding `c1ccc(-c2ccccn2)nc1`, the “activity change, negative = inhibition” value was inactive: -3.54%.
Regarding `C=C[C@@]1(C)CC(=O)[C@]2(O)[C@@]3(C)[C@@H](O)CCC(C)(C)[C@@H]3[C@H](O)[C@H](OC(C)=O)[C@@]2(C)O1`, the “activity change, negative = inhibition” value is inactive: -2.57%.
As to `Cc1cc2nc3ccc(=[N+](C)C)cc-3sc2cc1N`, the Potency was active: 15.8 µM.
As to `O=C(Cc1cccs1)N/N=C/C=C\c1ccco1`, the “activity change, negative = inhibition” value is inactive: -15.1%.
On to `N#Cc1cc2nc(O)c(O)nc2cc1[N+](=O)[O-]`, for which the “activity change, negative = inhibition” value was inactive: 1.11%.
Turning to `COC(=O)[C@H](NC(=O)c1cc(-c2ccccc2)nc2ccccc12)c1ccccc1`, the “activity change, negative = inhibition” value was inactive: -1.97%.
With `N[C@H](COP(=O)(O)O)C(=O)O`, the “activity change, negative = inhibition” value was inactive: -3.54%.
Consider `N[C@H](Cc1c[nH]c2ccccc12)C(=O)O`, for which the “activity change, negative = inhibition” value is inactive: -6.1%.
Regarding `Cc1ccc(-n2cccc2/C=C2/C(=N)N3C(=NC2=O)SN=C3S(C)(=O)=O)cc1Cl`, the Potency was active: 28.2 µM.
For the molecule `C=CC(C)(C)c1[nH]c2ccccc2c1C1=C(O)C(=O)C(c2c[nH]c3c(CC=C(C)C)cccc23)=C(O)C1=O`, the Potency was active: 6.31 µM.
Turning to `CNC1=C(Br)C(=O)c2ccncc2C1=O`, the Potency was active: 14.1 µM.
Regarding `Cc1ccc(=O)n(-c2ccccc2)c1`, the “activity change, negative = inhibition” value was inactive: -3.29%.
As for `O=C(N/N=C/c1cccc(F)c1)c1cc(-c2ccco2)nc2ccccc12`, the Potency is active: 11.2 µM.
Take `COc1cc2cc3c(N)c(C(=O)Nc4sc(C)c(C)c4C#N)sc3nc2cc1OC`: the Potency is active: 31.6 µM.
On the same count and under the same terms, the value for `N[C@@H](Cc1cc(I)c(Oc2ccc(O)c(I)c2)c(I)c1)C(=O)O` was “inactive”.
Turning to `Nc1ncn([C@H]2O[C@@H](CO)[C@@H](O)[C@@H]2O)c(=O)n1`, the “activity change, negative = inhibition” value is inactive: -0.351% [at 21.4 µM].
For `O=C(O)C1CSC(c2ccco2)N1` (stereo not given), the Potency is active: 25.1 µM.
On to `Cn1cnc([N+](=O)[O-])c1Sc1ncnc2nc[nH]c12`, for which the Potency entry was “inactive”.
With `O=c1[nH]c2ccccc2n1CCCN1CCN(C(c2ccccc2)c2ccccc2)CC1`, the “activity change, negative = inhibition” value is inactive: -6%.
Turning to `Nc1nc(Cl)nc2c1ncn2[C@@H]1O[C@H](CO)[C@@H](O)[C@H]1O`, the Potency entry was “inactive”.
Turning to `O=C(N/N=C/c1ccc([N+](=O)[O-])o1)c1cc2c(ccc3ccccc32)o1`, the Potency was active: 7.94 µM.
In the case of `OCCN(CCO)c1nc(N2CCCCC2)c2nc(N(CCO)CCO)nc(N3CCCCC3)c2n1`, the Potency result was “inactive”.
As to `NS(=O)(=O)c1cc2c(cc1Cl)NC(C1CC3C=CC1C3)NS2(=O)=O` (stereo not given), the “activity change, negative = inhibition” value was inactive: 5.93%.
For `O=c1oc2c(O)c(O)cc3c(=O)oc4c(O)c(O)cc1c4c23`, the Potency was active: 1.12 µM and active: 15.8 µM and active: 2 µM.

Values taken from PubChem BioAssay AID2528 (National Center for Advancing Translational Sciences (NCATS), 2010).
